Reference: the supplement of paper PMC3334620
Over roughly 33,000 sequences, “E-score (-0.5 to 0.5)” has its median near -0.054; the highest 2% begin near 0.35. The list shows a part of the results.

Each sequence was assayed against T1, Stb5 (UniProt P38699) (assay: PBM E-score (8-mer binding enrichment) (E-score (-0.5 to 0.5)); higher = stronger / more preferred TF binding; most listed sequences are background and not binding sites). Settings: protein concentration: 200 nM; construct: GST-full length.
T1 sequence: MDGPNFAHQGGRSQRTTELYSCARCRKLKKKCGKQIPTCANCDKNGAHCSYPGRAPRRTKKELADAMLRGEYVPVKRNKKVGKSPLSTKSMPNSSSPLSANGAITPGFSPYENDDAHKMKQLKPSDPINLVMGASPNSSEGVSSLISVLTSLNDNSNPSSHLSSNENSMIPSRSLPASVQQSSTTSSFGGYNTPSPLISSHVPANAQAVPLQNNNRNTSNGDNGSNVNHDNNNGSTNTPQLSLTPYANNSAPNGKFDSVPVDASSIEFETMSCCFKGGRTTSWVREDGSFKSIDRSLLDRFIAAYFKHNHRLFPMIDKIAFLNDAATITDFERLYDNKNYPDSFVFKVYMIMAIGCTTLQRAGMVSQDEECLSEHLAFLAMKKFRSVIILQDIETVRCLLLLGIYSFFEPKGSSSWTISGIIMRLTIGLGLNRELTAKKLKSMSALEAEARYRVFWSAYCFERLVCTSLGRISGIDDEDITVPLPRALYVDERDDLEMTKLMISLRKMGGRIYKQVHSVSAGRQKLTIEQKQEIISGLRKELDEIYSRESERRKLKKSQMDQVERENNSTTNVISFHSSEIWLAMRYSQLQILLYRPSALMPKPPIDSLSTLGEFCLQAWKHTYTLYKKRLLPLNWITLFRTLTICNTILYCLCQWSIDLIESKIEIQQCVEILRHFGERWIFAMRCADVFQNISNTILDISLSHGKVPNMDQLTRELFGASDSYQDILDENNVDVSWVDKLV
How it was run: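 For each ungapped eight-base word taken together with its reverse complement, the Universal PBM Analysis Suite assigned an E-score. Binding data came from GST-tagged yeast transcription factors, applied at about 100-200 nM, on universal all-10-mer Agilent arrays made double-stranded by primer extension. Fluorescent anti-GST marked bound protein, and scans were normalised with masliner.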

| Sequence | PBM E-score |
| --- | --- |
| GGGCCTGA | -0.0768 |
| AGATAAGG | -0.0427 |
| GGTAGCTA | -0.181 |
| TAGTGACA | -0.216 |
| AGGTATAT | -0.153 |
| ACAAGCCT | -0.238 |
| GTCTGCAA | -0.0363 |
| AGGGGATC | -0.0177 |
| AGCGACCC | 0.1 |
| ATTGTCAG | -0.147 |
| ACTGTACC | 0.0518 |
| GAGAGACA | -0.101 |
| CGTAATCC | 0.143 |
| AGCCGCAG | 0.0437 |
| ATTTATGC | -0.0167 |
| GACAAAAC | -0.0205 |
| TTAAGTAA | 0.0405 |
| CTAAGGAC | 0.108 |
| AGTGTATG | -0.00857 |
| AGGCGTCA | -0.0617 |
| ACGCTTAG | -0.072 |
| CAGGTTCG | -0.127 |
| AATCGTCT | -0.204 |
| AGACTACA | -0.273 |
| ATTCCGAG | 0.0819 |

| Sequence | PBM E-score |
| --- | --- |
| AAGCATTC | -0.24 |
| CGGGGACC | 0.051 |
| ATATTCTG | 0.0727 |
| TCATACAA | -0.0835 |
| CCAGCTCG | -0.17 |
| CTATTGAA | 0.0691 |
| CGGAGGCC | 0.129 |
| CACTGGCA | -0.291 |
| AATACGTC | 0.126 |
| CTTACGCA | -0.135 |
| CTAAGGTA | 0.0211 |
| ATTACATC | 0.19 |
| ATTAGCGA | 0.14 |
| ACTTGTCC | 0.0447 |
| GCCACGTA | -0.184 |
| CCCGCAGC | 0.229 |
| CTATCTGC | 0.0689 |
| GGGAAATA | 0.134 |
| GGCAGTTA | 0.102 |
| CAACGGCA | 0.157 |
| GATCGCAA | -0.0786 |
| CGCGGTCC | 0.356 |
| CATGCTTC | -0.116 |
| AAATGAAC | -0.126 |
| GTCATTAA | 0.00252 |

| Sequence | PBM E-score |
| --- | --- |
| GACAGATA | 0.042 |
| CAGCTACG | -0.118 |
| CTACGCAA | -0.111 |
| CCTAGCAG | -0.116 |
| GTTGGTTA | -0.0814 |
| AGTTTACG | -0.0295 |
| AGTCTTAT | -0.13 |
| CACCTGGG | -0.211 |
| AGTGATGG | -0.177 |
| AGCCACGA | -0.196 |
| CCATCGAC | -0.0603 |
| ATGGTAAC | -0.0321 |
| TAGAAAAA | -0.116 |
| GAACGTCC | 0.038 |
| AACTATGA | -0.193 |
| ACTTAGTG | -0.0691 |
| AGGCCATA | -0.0164 |
| ATCGATAC | -0.0882 |
| AGGATAAC | -0.21 |
| AAGCACCG | 0.457 |
| GCGCCTGA | -0.00624 |
| CACTGGAC | -0.0343 |
| ATAGGGAT | -0.0448 |
| GTCACAAC | -0.016 |
| GCGAGGAC | -0.118 |

| Sequence | PBM E-score |
| --- | --- |
| CGACGGAA | 0.262 |
| CTTGCTTC | -0.0694 |
| AGTTCATA | -0.0563 |
| AGAAATCA | -0.0833 |
| CCCCTAGA | -0.312 |
| CCACACAC | 0.0986 |
| CTCCGGAC | 0.381 |
| AACGCGCG | -0.0281 |
| ATGGAAAT | -0.199 |
| GGGATACA | 0.0412 |
| GGCAGCGA | -0.0943 |
| ACCGAGGC | 0.117 |
| GGTCTCGA | -0.0531 |
| GACGGTCA | 0.11 |
| GGCCAGAA | -0.136 |
| CAGACGAA | -0.139 |
| CGCTTCGA | 0.00461 |
| AAACCGCG | 0.258 |
| CGAGCAAA | -0.2 |
| CCGAGATA | 0.186 |
| ACTACTTA | -0.155 |
| TCCCGGGA | 0.181 |
| CTCTGGAA | -0.161 |
| CCTCGGCA | 0.17 |
| ACAACAAA | -0.00837 |

| Sequence | PBM E-score |
| --- | --- |
| CATTACGG | -0.0395 |
| GGTCTAGA | 0.00139 |
| GCGCATAC | 0.0543 |
| CACGGTAA | 0.232 |
| CGCTAGCC | -0.175 |
| CTCCTCAA | -0.0752 |
| CCGATATA | 0.267 |
| GTTCCCAA | 0.0114 |
| CTCCCCAA | -0.139 |
| AATTATTA | 0.017 |
| ATCTAAAG | -0.0508 |
| CTTAGGCC | 0.0358 |
| AGTTGCCG | 0.108 |
| CCGTTCAG | 0.18 |
| CCTTTTCG | -0.0988 |
| ACGTCTAA | -0.021 |
| CGCAACAC | 0.0665 |
| GCGCAACC | 0.00927 |
| CCGTCCAG | 0.19 |
| CCGCGTAG | 0.109 |
| TAACGCAA | -0.0697 |
| GATGATGC | -0.0873 |
| GTGCCATA | -0.112 |
| GCTAAGCC | 0.0516 |
| GGATACTA | 0.115 |

| Sequence | PBM E-score |
| --- | --- |
| GAACGTTA | -0.0144 |
| ACACAGGC | -0.0728 |
| AAGAGTGG | -0.146 |
| GGAACCAA | 0.0988 |
| GATCCCCC | -0.00321 |
| CCCCATCG | 0.113 |
| ATACGGCC | 0.299 |
| CGGACATA | 0.474 |
| CGACTCCA | -0.0871 |
| GGTCGATA | 0.00753 |
| GAGATGAC | -0.132 |
| GCCAAATA | 0.0439 |
| GCCGATCC | 0.207 |
| GTGGTGCA | 0.0323 |
| AACCAGAC | -0.327 |
| CCATCTGC | 0.0588 |
| AGTGCAAC | -0.0624 |
| GTGTGGTA | -0.116 |
| GTGCTCGA | -0.133 |
| AAACGCAA | -0.0113 |
| GAGCATCC | -0.103 |
| CGCAATAC | -0.0062 |
| CGTTGGTA | 0.118 |
| ACCGCCCG | 0.345 |
| CCCAGTTA | -0.0109 |

| Sequence | PBM E-score |
| --- | --- |
| CACATGTA | -0.115 |
| AGTCTCAT | -0.154 |
| CTGTATTA | -0.0491 |
| AAGTCGGG | 0.259 |
| CCCAGTGA | -0.136 |
| GACTTTGA | -0.0643 |
| ATAATATC | 0.154 |
| CTATTGGA | -0.13 |
| CTAGGGAA | -0.00814 |
| CTCGACAC | -0.052 |
| ACATGCAC | -0.231 |
| GACAGCCC | 0.0224 |
| CCGTAGGC | 0.175 |
| GTCACCGA | 0.285 |
| GGATAGTA | 0.112 |
| CTGATTAC | -0.0945 |
| TATTAGCA | -0.0828 |
| AAGTAGAT | -0.0908 |
| ACGATGCG | -0.0816 |
| CGCTCACG | 0.121 |
| ACTGCCTG | -0.299 |
| ACGTGAAT | -0.146 |
